SMILES strings stand for the structures. Where “and” joins values, the source holds several entries; their conditions need not be identical. Equal entries are not always repeated. This is one part of the list. Further columns of the screen follow, without active or inactive calls. Compounds called inactive in the main read-out are mostly missing here.

A short description of this assay: up-regulation of insulin promoter-GFP reporter – imaging, high-content screening, mouse beta cells (AID 1625).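 Note: total cells summed across four imaged fields per well.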 As to conditions: MIN6 insulin promoter-GFP reporter, measured here: cytotoxicity, nuclei count, at 5 µM.
Molecule `C=C1C(=O)C=C2CN(C(=O)c3ccccc3)[C@@](Cc3ccc(F)cc3)(C(=O)OC)[C@@H]12` came in with a cell count of 200 cells.

`CCCNC(=O)N1CCN(c2nc(C(C)C)c3c(c2C#N)CC(C)(C)OC3)CC1` displayed a cell count of 498 cells.

Regarding `COc1cccc2c(=O)n(CC(=O)Nc3cccc(F)c3)ccc12`, the cell count was 743 cells.

The molecule `COc1ccc(C)cc1N1C(=N)/C(=C2/Nc3ccccc3S2)C(c2ccccc2)C1=O` (stereo unspecified) showed a cell count of 467 cells. Consider `FC(F)Oc1ccc(-n2cc(-c3ccccc3)[n+]3c2CCCCC3)cc1`, for which the cell count turned out to be 463 cells. Molecule `c1csc(-c2csc3ncnc(NCCCN4CCOCC4)c23)c1` showed a cell count of 472 cells. As for `CCCCCc1ccc(OCCCC[n+]2cccc(C)c2)c(CCCCC)c1`, the cell count came to 400 cells. To `CC[n+]1c(/C=C/N(C)c2ccccc2)oc2ccc(F)cc21` belongs 231 cells. Consider `CCOC(=O)c1cc2c(C)n(-c3ccc(C)cc3)c(C)c2ccc1=O`, for which the cell count was 305 cells. To `Cc1ccc(-c2cc3cccc[n+]3cc2-c2ccc(C)cc2)cc1` belongs 225 cells. In turn, `O=C(Nc1ccc(S(=O)(=O)N2CCCCC2)cc1)c1ccc(CN2CCc3ccccc3C2)cc1` showed a cell count of 304 cells. In turn, `CNC(=O)C1CC(=O)N/C(=N/N=C(\C)c2cccs2)S1` (stereo unspecified) yielded a cell count of 1680 cells.

With `c1ccc(CSC2=NNC(c3ccccn3)S2)cc1` (stereo unspecified), the cell count worked out at 481 cells.

With `Cc1ccc(C[n+]2cccc(-c3ccccc3)c2)c(C)c1`, the cell count worked out at 315 cells. In the case of `CCCN1C(=O)S/C(=C\c2ccc(N3CCOCC3)o2)C1=O`, the cell count amounted to 1310 cells.

As to `Cc1ccc(-c2cn(-c3ccccc3)c3[n+]2CCCS3)cc1`, the cell count is 295 cells and 232 cells. The molecule `CN1C(=S)N(c2cccnc2)C(=O)/C1=C\c1ccc(N(C)C)cc1` showed a cell count of 1430 cells. To `C#CC(=O)N(c1ccc(OC)cc1OC)C(C(=O)NC1CCCC1)c1cccs1` (stereo unspecified) belongs 490 cells; to `CCN1CCN(Cc2ccc(NC(=O)c3ccc(C)c(NC(=O)c4c[nH]c5cc(C(F)(F)F)ccc5c4=O)c3)cc2C(F)(F)F)CC1`, 200 cells. As for `Cc1noc(/C=C/c2ccc(-c3ccccc3Cl)o2)c1[N+](=O)[O-]`, the cell count was found to be 1260 cells. As for `CN(C)c1ccc(/C=C/c2ccc3ccccc3n2)cc1`, the cell count worked out at 1470 cells. Consider `COc1ccc(N(CC(=O)NC2CCCC2)S(=O)(=O)c2c(C)[nH]c(=O)[nH]c2=O)cc1`, for which the cell count was 292 cells. Turning to `COc1cc(/C=N/NC(=O)CSc2ccccn2)ccc1O`, the cell count stood at 296 cells. `COc1ccc(N/N=C/c2c(C(=O)O)ccc3ccccc23)cc1` showed a cell count of 409 cells. With `Cc1cccc(OCc2nnc(SCC(=O)Nc3cccc(C(=O)N4CCOCC4)c3)o2)c1C` the figure was 371 cells; with `c1ccc(-c2c[n+]3c(n2-c2ccccc2)CCC3)cc1`, 496 cells. For the molecule `Nc1ccc2c(c1)CC(=O)c1ccccc1S2`, the cell count came out at 433 cells.

For the molecule `O=C(Nc1nc(-c2ccccn2)cs1)c1ccc(S(=O)(=O)N2CCCCC2)cc1`, the cell count was 396 cells. As for `N=c1c2c(n(Cc3ccc(Br)cc3)c3c1CCC3)CCCC2`, the cell count was found to be 340 cells. To `OCCCNc1nccc(-c2cc(Nc3cccc(Cl)c3)ncn2)n1` belongs 484 cells; to `COc1ccc(C=C2c3ccccc3C(=O)c3ccccc32)c(OC)c1`, 498 cells; to `CCCCCCCn1ccc(=N)cc1`, 250 cells. As to `COCCN1CN(S(=O)(=O)c2ccccc2)c2nc3ccccc3nc21`, the cell count came out at 1160 cells. As to `Cc1ccc(/C=[N+](\[O-])c2ccc(N(C)C)cc2)c2nsnc12`, the cell count was determined as 1240 cells. As for `O=C(Nc1ccc(N2CCCCC2)cc1)c1cccnc1`, the cell count was found to be 1240 cells. `C#CCOCCOCCOCCNc1nc(N2CCN(C(=O)[C@H]([C@@H](C)O)n3cc(CCCCN)nn3)CC2)nc(N2CCN(C(=O)[C@H]([C@@H](C)CC)n3cc(CCCN=C(N)N)nn3)CC2)n1` had a cell count of 410 cells. The molecule `Oc1ccc(/C=N/Nc2ccnc3cc(Cl)ccc23)c(O)c1` registered a cell count of 1010 cells. `COc1ccc2cc(CCNC(=O)c3c(-c4ccccc4Cl)noc3C)c(=O)[nH]c2c1` came in with a cell count of 420 cells. The molecule `CCN(CC)c1ccc(NC2=C(Cl)C(=O)c3ccccc3C2=O)cc1` displayed a cell count of 286 cells. The molecule `O=C(N/N=C/C(Br)=C\c1ccccc1)c1n[nH]c2c1CCC2` displayed a cell count of 421 cells. `CN(C)CCCCNCCCNC(=O)/C=N\O` returned a cell count of 453 cells. For `COc1ccccc1CNC(=O)C1=C(C)C(=O)OC12CCC(C)CC2` (stereo unspecified), the cell count was found to be 460 cells. In turn, `O=C(NC(Nc1nc2ccc([N+](=O)[O-])cc2s1)(C(F)(F)F)C(F)(F)F)c1ccccc1Cl` displayed a cell count of 458 cells. On to `COc1ccc(C2CC(c3ccccc3)=NN2c2ccc(S(N)(=O)=O)cc2)cc1` (stereo unspecified), for which the cell count was 489 cells. `Cc1ccc(-n2c(C)cc(C(=O)CSc3nncs3)c2C)cc1` came in with a cell count of 442 cells. With `O=[N+]([O-])c1ccc(N/N=C/c2ccc[nH]2)cc1`, the cell count worked out at 689 cells.

The molecule `O=C(NCc1ccco1)c1ccc(=O)[nH]n1` gave a cell count of 464 cells. To `O=C(C1CCCCN1S(=O)(=O)c1ccccc1)N1CCN(C(c2ccccc2)c2ccccc2)CC1` (stereo unspecified) belongs 356 cells; to `c1ccc2c(c1)OC(CCCN1CCCCC1)c1ccccc1S2` (stereo unspecified), 499 cells. For the molecule `CCCOc1cc(N(CC)CC)ccc1/C=C(/C#N)c1nc2ccc(C)cc2[nH]1`, the cell count turned out to be 1050 cells. The molecule `O=C(Oc1cccc2cccnc12)c1ccco1` showed a cell count of 486 cells. With `O=C(Cc1c(F)cccc1Cl)Nc1ccncc1` the figure was 381 cells; with `O=C(NC1(C(F)(F)F)NC(=O)N(c2ccc(F)c(Cl)c2)C1=O)c1ccncc1` (stereo unspecified), 1500 cells.

In turn, `O=C(NCc1ccc(F)cc1)C1CCCN(S(=O)(=O)c2cccnc2)C1` (stereo unspecified) yielded a cell count of 1210 cells. `O=C1c2ccccc2C(O)(Cc2ccccc2)N1C1CCCCC1` (stereo unspecified) had a cell count of 471 cells. With `COc1cc2c3nnc(-c4ccccc4)c-3cn(Cc3ccccc3F)c2cc1OC` the figure was 954 cells; with `COc1ccc(C)cc1NC(=O)COC(C)=O`, 844 cells; with `CCc1c(C)nc2ncnn2c1NCCc1ccc(OC)cc1`, 271 cells. `CN1C=CC2=C(C#N)C(N)C(C#N)(C#N)C(c3ccccc3)C2C1` (stereo unspecified) yielded a cell count of 1770 cells.

Take `O=c1c(Br)c(Br)cnn1-c1ccccc1`: the cell count turned out to be 435 cells. With `O=c1[nH]c2ccccc2nc1/C=C/c1ccc(F)cc1`, the cell count is 1380 cells.

In turn, `COc1ccccc1CC(=O)NC1CC(C)(C)NC(C)(C)C1` returned a cell count of 1050 cells.

The molecule `CCN1CCc2c(sc(NC(=O)Nc3ccc(Cl)c(Cl)c3)c2C(N)=O)C1` yielded a cell count of 1100 cells. With `COc1ccc(C2=NC(=O)/C(=C\c3cc(OC)c(OC)c(OC)c3)O2)cc1` the figure was 1220 cells; with `Cc1ccc(CNc2nc(C)nc3sc4c(c23)CCC4)cc1`, 406 cells; with `C=CCn1c(-c2oc3nc(-c4ccccc4)cc(-c4ccccc4)c3c2N)n[nH]c1=S`, 852 cells.

In turn, `COCC(=O)O[C@]1(CCN(C)CCCc2nc3ccccc3[nH]2)CCc2cc(F)ccc2[C@@H]1C(C)C` had a cell count of 420 cells. To `O=C1S/C(=C\c2ccc(N3CCOCC3)o2)C(=O)N1Cc1c(F)cccc1Cl` belongs 1660 cells. For `Cc1ccc(C(=O)OCn2ncc(Cl)c(Cl)c2=O)cc1`, the cell count worked out at 99 cells.

For `Cc1cc(Nc2nn(C)c(N)c2C#N)ccc1F`, the cell count was 618 cells.

`C[C@@H](O)[C@@H]1NC(=O)c2cc([N+](=O)[O-])cc(I)c2NCC[C@@H](C(N)=O)NC(=O)CNC1=O`: the cell count came out at 341 cells. Molecule `O=C(CC12CC3CC(CC(C3)C1)C2)NCC(=O)N1CCc2ccccc2C1` had a cell count of 904 cells. The molecule `Cc1cc(C)n(-c2ccc(C(=O)OCC(=O)N(CC(C)C)C3CCS(=O)(=O)C3)cc2)n1` (stereo unspecified) had a cell count of 1010 cells. With `CCCCC(=O)NCc1ccc(Cl)cc1` the figure was 462 cells; with `CCOC(=O)C1CCCN(C(=O)C2CCCN(S(=O)(=O)c3ccc4c(c3)oc(=O)n4C)C2)C1` (stereo unspecified), 373 cells. In turn, `CCN(CCNC(=O)C1CCCN(S(=O)(=O)CC)C1)c1ccccc1` (stereo unspecified) showed a cell count of 1080 cells. `COc1ccc(NC(=O)/C(Cl)=C(/Cl)S(=O)Cc2ccc(C)cc2)cn1` (stereo unspecified) displayed a cell count of 498 cells. Regarding `Cn1c(=O)n(C)c2cc(C(=O)Nc3ccc4c(c3)OCO4)ccc21`, the cell count amounted to 497 cells. The molecule `O=C1C(Cl)=C(Nc2ccc3cn[nH]c3c2)C(=O)c2ccccc21` yielded a cell count of 205 cells. With `O=C1N/C(=N/Nc2ccccc2)S/C1=C\c1ccccc1`, the cell count stood at 1250 cells. Take `CSc1nsc(/C=C/Nc2ccc(C)cc2)c1C#N`: the cell count was found to be 1110 cells. Molecule `NCC12CC3CC(C1)CC(CN)(C3)C2` registered a cell count of 928 cells. For `COc1ccc2nc(Nc3nc(CSc4nc5ccccc5[nH]4)cc(=O)[nH]3)nc(C)c2c1`, the cell count came out at 378 cells.

Molecule `CC1CC(C)C[N+](=C2C=C(N3CCCC3)CC(C)(C)C2)C1` (stereo unspecified) showed a cell count of 378 cells. In the case of `CC(C)=NNc1nc2c(c(=O)n(C)c(=O)n2C)n1CCc1ccccc1`, the cell count was determined as 1120 cells. In the case of `CC(=O)n1c(C=Nc2ccccc2)c(O)c2ccccc21`, the cell count came to 1060 cells.

In turn, `Cc1ccc(S(=O)(=O)CC2CSc3nc4ccccc4n32)cc1` (stereo unspecified) yielded a cell count of 459 cells. Consider `C/C(=N\S(=O)(=O)c1ccc(C)cc1)N1CCN(S(=O)(=O)c2ccccc2)C1`, for which the cell count came to 1140 cells. Regarding `CC[n+]1c(/C=C/C=C/N(C(C)=O)c2ccccc2)sc2ccccc21`, the cell count was 399 cells. `N#C/C(=C\C1CC=CCC1)c1nc2ccccc2[nH]1` (stereo unspecified) had a cell count of 318 cells. `CCCCCCn1c(NCC)nc2c1c(=O)n(C)c(=O)n2C`: the cell count turned out to be 258 cells. As to `Cc1nc(N2CCN(C(=O)c3ccco3)CC2)c2c3c(sc2n1)CC(C)CC3` (stereo unspecified), the cell count was determined as 276 cells.

`CCn1c(C)c(P(c2ccccc2)c2ccccc2)[n+]2ccccc12`: the cell count was 499 cells. Molecule `O=C(CC1SC(=Nc2ccc(OC(F)F)cc2)N(CCC2=CCCCC2)C1=O)Nc1ccccc1F` (stereo unspecified) gave a cell count of 315 cells. Turning to `Cc1nc(NC(=O)COC(=O)CCS(=O)(=O)c2ccccc2Cl)c(Cl)cc1Cl`, the cell count came out at 1330 cells. With `Oc1ccc(Cl)cc1C1=Nc2ccccc2N=C(c2ccco2)C1` the figure was 1130 cells; with `CCC(=O)Nc1cc(C(=O)OCC(=O)c2ccccc2)ccc1C`, 249 cells; with `CC[n+]1c(/C=C/c2ccc(N(C)C)cc2)ccc2ccccc21`, 74 cells. `COc1cc(C2Oc3ccccc3C=C2[N+](=O)[O-])cc(OC)c1OC` (stereo unspecified) displayed a cell count of 417 cells. For `CC1(C)CC(N2CCN(Cc3ccccc3)CC2)=CC(=[N+]2CCCCC2)C1`, the cell count is 497 cells.

As for `Brc1ccc2ncnc(NCc3ccco3)c2c1`, the cell count was 334 cells. Take `CCOc1cc([N+](=O)[O-])cc2c1C(=O)Nc1ccccc1O2`: the cell count worked out at 1220 cells.

On to `FC(F)(F)c1nc(N2CCCC2)ncc1-c1nnnn1-c1ccc(Cl)cc1`, for which the cell count turned out to be 353 cells. With `CC1=Nc2ccccc2/C1=C/c1sc(=S)n(-c2cccc(C(=O)O)c2)c1O` the figure was 1210 cells. Take `Nc1c(C(=O)N/N=C/c2ccccc2Cl)oc2nc(-c3ccccc3)cc(-c3ccco3)c12`: the cell count came out at 963 cells. The molecule `Cc1cc(C(=O)COC(=O)C2=NNC(=O)CC2)c(C)n1-c1ccc(OC(F)F)cc1` returned a cell count of 309 cells.

Source of the values: PubChem BioAssay AID1625 (Sanford-Burnham Center for Chemical Genomics, 2009).
